Assay results: PubChem BioAssay (NCI)
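Briefly, cells in 96-well plates were exposed to five compound concentrations for 48 h, and endpoints were estimated by linear interpolation. GI50: concentration for 50% inhibition of growth.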 Not every entry of the source has a single result; some have several. This list holds those alone. An entry can have further records. Records of one sample usually come from different ranges of test concentrations, not given here; a value can be the end of its range.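 The concentration for full growth arrest is given as TGI.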

Key:
Test in all cases: inhibition of tumour cell growth, NCI panel, 48 h
[1] = system: U251 CNS
[2] = system: A549 NSCLC
[3] = system: HCT-15 colon
[4] = system: SK-MEL-5 melanoma

With `CN1C(=O)[C@]23SSC1(C)C(=O)N2[C@H]1Nc2ccccc2C1([C@@]12c4ccccc4N[C@@H]1N1C(=O)C4(C)SS[C@]1(C(=O)N4C)[C@H]2O)[C@@H]3O` (stereo not given in full) the GI50 [1] was 60.8 nM and 1.21 µM, the TGI [1] was 246 nM and 2.64 µM and the GI50 [2] was 153 nM and 2.54 µM. For the same compound, the TGI [3] was 97.9 nM and 1.06 µM and the GI50 [4] was 59 nM and 663 nM.
